Paper PMC5892938
Some of the results follow. At the low end of the ranking the order means little.

target: GST-SBP-SLBP (stem-loop binding protein) (UniProt Q14493); test: targeted RNA Bind-n-Seq; details: RBNS binding buffer: 25 mM Tris pH 7.5, 150 mM KCl, 3 mM MgCl2, 0.1% Tween, 0.5 mg/mL BSA, 1 mM DTT; 27 nM protein, 750 pM RNA pool; temperature not stated; high values mean tight binding;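 note: DESeq read counts versus GST-SBP nonspecific binding control pulldown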

| Sequence | binding signal (log2 fold change) |
| --- | --- |
| GGUCACGUCUCAAUCAACUCCUUAGAGGGGGGGAAAACCCCUUUGCCCUCAUUCUCAACAGCUCGCAGUCAAG | -0.468 |
| GGUCACGUCUCAAUCAACUCUUUUUCCAGGGAAAGCCCUGGUAAUUUCAACAGCUCGCAGUCAAG | 0.059 |
| GGUCACGUCUCAAUCAACUCAGUCUCCAGGGAAAUCCCUGGUUUAUUCAACAGCUCGCAGUCAAG | -0.156 |
| GGUCACGUCUCAAUCAACUCUUCCGCAGGAGUUUCCUCCUGGUAAUUCAACAGCUCGCAGUCAAG | 0.0971 |
| GGUCACGUCUCAAUCAACUCUUCUUCAGGAGUUUACUCCUGUAAUCUCAACAGCUCGCAGUCAAG | 0.0621 |
| GGUCACGUCUCAAUCAACUCUAUAGAGGGGGGGAAAACCCCUUUACCCUCCCAAUCAACAGCUCGCAGUCAAG | 0.213 |
| GGUCACGUCUCAAUCAACUCUAUUCCCAGGGAAAUCCCUGGCUUUUUCAACAGCUCGCAGUCAAG | 0.13 |
| GGUCACGUCUCAAUCAACUCUAAAGAGGGGGGGAAAACCCCUUUGCCCUCCACAUCAACAGCUCGCAGUCAAG | 0.069 |
| GGUCACGUCUCAAUCAACUCAGUCUCCAGGGAAACCCCUGGUUAAUUCAACAGCUCGCAGUCAAG | -0.028 |
| GGUCACGUCUCAAUCAACUCUCUAGAGGGGGGGAAAACCCCUUUACCCUCACAUUCAACAGCUCGCAGUCAAG | -0.0215 |
| GGUCACGUCUCAAUCAACUCUUCUCCCAGGGAAAGCCCUGGUUAAUUCAACAGCUCGCAGUCAAG | 0.132 |
| GGUCACGUCUCAAUCAACUCACCCGAGGGGGGGAAAACCCCUUUACCCUCACAAUCAACAGCUCGCAGUCAAG | -0.329 |
| GGUCACGUCUCAAUCAACUCCAACGAGGGGGGGAAAACCCCUUUACCCUCAUUAUCAACAGCUCGCAGUCAAG | 0.197 |
| GGUCACGUCUCAAUCAACUCUAACGAGGGGGGGAAAACCCCUUUGCCCUCAAUCUCAACAGCUCGCAGUCAAG | 0.259 |
| GGUCACGUCUCAAUCAACUCAUUCUCCAGGGAAACCCCUGGCUUACUCAACAGCUCGCAGUCAAG | 0.0472 |
| GGUCACGUCUCAAUCAACUCAUCUUCCAGGGAAACCCCUGGUAUUUUCAACAGCUCGCAGUCAAG | 0.121 |
| GGUCACGUCUCAAUCAACUCUUCGUCAGGAGUUUACUCCUGUUUUCUCAACAGCUCGCAGUCAAG | 0.0768 |
| GGUCACGUCUCAAUCAACUCUAUUUCAGGAGUUUCCUCCUGCUAUCUCAACAGCUCGCAGUCAAG | 0.101 |
| GGUCACGUCUCAAUCAACUCUUUAGAGGGGGGGAAAACCCCUUUACCCUCACAAUCAACAGCUCGCAGUCAAG | 0.17 |
| GGUCACGUCUCAAUCAACUCAAUCCCCAGGGAAACCCCUGGCAAUCUCAACAGCUCGCAGUCAAG | -0.124 |
| GGUCACGUCUCAAUCAACUCUUUCCCAGGAGUUUCCUCCUGUUUUCUCAACAGCUCGCAGUCAAG | 0.0978 |
| GGUCACGUCUCAAUCAACUCAAACGAGGGGGGGAAAACCCCUUUACCCUCACCUUCAACAGCUCGCAGUCAAG | 0.0402 |
| GGUCACGUCUCAAUCAACUCAUUCCCCAGGGAAACCCCUGGUUUUCUCAACAGCUCGCAGUCAAG | 0.147 |
| GGUCACGUCUCAAUCAACUCAAAAGAGGGGGGGAAAACCCCUUUGCCCUCAAUCUCAACAGCUCGCAGUCAAG | 0.208 |

| Sequence | binding signal (log2 fold change) |
| --- | --- |
| GGUCACGUCUCAAUCAACUCAAUUUCAGGAGUUUGCUCCUGUAUUUUCAACAGCUCGCAGUCAAG | -0.135 |
| GGUCACGUCUCAAUCAACUCUUCGUCAGGAGUUUACUCCUGUAAUCUCAACAGCUCGCAGUCAAG | 0.0942 |
| GGUCACGUCUCAAUCAACUCCAACGAGGGGGGGAAAACCCCUUUGCCCUCAAAAUCAACAGCUCGCAGUCAAG | 0.0864 |
| GGUCACGUCUCAAUCAACUCUUCCUCCAGGGAAACCCCUGGCUUUUUCAACAGCUCGCAGUCAAG | 0.107 |
| GGUCACGUCUCAAUCAACUCAAUCUCAGGAGUUUACUCCUGCUAUGUCAACAGCUCGCAGUCAAG | 0.146 |
| GGUCACGUCUCAAUCAACUCAAUUCCAGGAGUUUGCUCCUGCUUUCUCAACAGCUCGCAGUCAAG | 0.155 |
| GGUCACGUCUCAAUCAACUCUACUCCAGGAGUUUACUCCUGCUAUUUCAACAGCUCGCAGUCAAG | -0.0258 |
| GGUCACGUCUCAAUCAACUCAUUCUCAGGAGUUUCCUCCUGUAAACUCAACAGCUCGCAGUCAAG | 0.266 |
| GGUCACGUCUCAAUCAACUCAUCUCCAGGAGUUUACUCCUGUUUAGUCAACAGCUCGCAGUCAAG | 0.0103 |
| GGUCACGUCUCAAUCAACUCUACUCCCAGGGAAAUCCCUGGCAUACUCAACAGCUCGCAGUCAAG | 0.0256 |
| GGUCACGUCUCAAUCAACUCAAUUCCAGGAGUUUUCUCCUGUAUUCUCAACAGCUCGCAGUCAAG | -0.168 |
| GGUCACGUCUCAAUCAACUCAAUCCCCAGGGAAAGCCCUGGUUAUCUCAACAGCUCGCAGUCAAG | -0.278 |
| GGUCACGUCUCAAUCAACUCAAUCUCCAGGGAAAGCCCUGGCUAUUUCAACAGCUCGCAGUCAAG | 0.186 |
| GGUCACGUCUCAAUCAACUCUUUCUCCAGGGAAAGCCCUGGUAUAUUCAACAGCUCGCAGUCAAG | -0.039 |
| GGUCACGUCUCAAUCAACUCAACUUCCAGGGAAAACCCUGGUAAAUUCAACAGCUCGCAGUCAAG | -0.212 |
| GGUCACGUCUCAAUCAACUCUUCUUCAGGAGUUUACUCCUGCUAAUUCAACAGCUCGCAGUCAAG | 0.0717 |
| GGUCACGUCUCAAUCAACUCAUUUUCAGGAGUUUUCUCCUGUAAUCUCAACAGCUCGCAGUCAAG | -0.0689 |
| GGUCACGUCUCAAUCAACUCCUUAGAGGGGGGGAAAACCCCUUUACCCUCAAAAUCAACAGCUCGCAGUCAAG | 0.546 |
| GGUCACGUCUCAAUCAACUCUCCAGAGGGGGGGAAAACCCCUUUACCCUCAUCAUCAACAGCUCGCAGUCAAG | -0.392 |
| GGUCACGUCUCAAUCAACUCAAUUUCAGGAGUUUUCUCCUGCUUAUUCAACAGCUCGCAGUCAAG | -0.0241 |
| GGUCACGUCUCAAUCAACUCAUUUUCAGGAGUUUCCUCCUGUAAUUUCAACAGCUCGCAGUCAAG | 0.0847 |
| GGUCACGUCUCAAUCAACUCUACUUCCAGGGAAACCCCUGGUUUUUUCAACAGCUCGCAGUCAAG | -0.0812 |
| GGUCACGUCUCAAUCAACUCUUCGUCAGGAGUUUUCUCCUGCAUAUUCAACAGCUCGCAGUCAAG | 0.133 |
